# Results reported in PubChem BioAssay (Tox21).
# Several values for one entry are separate records, joined by “and”; a condition that tells them apart may be missing. Identical values can stand only once. Inconclusive results, whose numbers are uncertain, are shown with a selection of clear calls. For some of these results: Potencies beside an inconclusive call are fits to weak or partial responses and may not hold up. Activity calls are given as the source filed them. Unless noted, calls come from the whole dose curve; as a rule, active = well fitted curve in the direction sought with a large enough effect in the repeat runs; inconclusive = weak or mixed curves; inactive = no such curve, though single readings can be large; an effect the other way counts as inactive or inconclusive.
# Assays:
# [1] = qHTS assay for small molecule agonists of the antioxidant response element (ARE) signaling pathway (AID 743202; active = well fitted activation curve with a large enough effect in the signal ratio in the repeat runs, not every such curve was filed as active; inconclusive = weak or mixed curves, or effect the other way; inactive = no such curve, though single readings can be large or run the other way; the % refers to the signal ratio; note: potency is the fitted concentration of half-maximal effect; for activation: % is set by controls: 0 for no effect and ±100 for the full control effect); settings: HepG2 ARE-bla reporter, beta-lactamase FRET, 16 h; activation: at 73.3 µM (top of the series) unless noted
# Method in brief: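 Read-out: LiveBLAzer B/G FRET substrate fluorescence after 2 h at room temperature, following 16 h compound treatment at 37 C of HepG2 cells carrying an ARE-driven beta-lactamase reporter.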
# [2] = qHTS assay to identify small molecule agonists of the peroxisome proliferator-activated receptor delta (PPARd) signaling pathway - cell viability counter screen (AID 743211); settings: PPARd-bla HEK293H viability, CellTiter-Glo luminescence, 17 h; activity change, negative = cytotoxicity: at 62.6 µM (top of the series); note: nearly all actives have a fitted effect of over 55% in size; note: potency is the fitted concentration of half-maximal effect; for activity change, negative = cytotoxicity: % is set by controls: 0 for no effect and ±100 for the full control effect
# Method in brief: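 Counter screen for cytotoxicity run in parallel with the PPARd reporter screen. Beta-lactamase reporter HEK293H cells exposed to compounds 17 h; ATP-based CellTiter-Glo luminescence quantified viability.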
# [3] = target: Vitamin D3 receptor (Homo sapiens) (UniProt P11473); experiment: qHTS assay to identify small molecule antagonists of the vitamin D receptor (VDR) signaling pathway (AID 743223; active = well fitted inhibition curve with a large enough effect in the signal ratio in the repeat runs, not every such curve was filed as active; inconclusive = weak or mixed curves, or effect the other way; inactive = no such curve, though single readings can be large or run the other way; the % refers to the signal ratio; note: % is set by controls: 0 for no effect and ±100 for the full control effect); settings: VDR-UAS-bla HEK293T, beta-lactamase FRET ratio, 16 h; activity change, negative = inhibition: at 61 µM (top of the series) unless noted
# Method in brief: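 Cells carrying a VDR-driven beta-lactamase reporter (VDR-bla) were co-treated with compound and 3 nM final 1alpha,25-dihydroxyvitamin D3 for 16 h at 37C; reporter activity was measured as FRET substrate fluorescence after 2 h at room temperature.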
# [4] = qHTS assay to identify small molecule antagonists of the retinoid-related orphan receptor gamma (ROR-gamma) signaling pathway - cell viability counter screen (AID 1159520); note: nearly all actives have a fitted effect of over 50% in size; note: potency is the fitted concentration of half-maximal effect
# Method in brief: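 Tet-on ROR gamma CHO cells (1,000/well) were plated 4 hr, given compounds in DMSO for 2 hr at 37 C, then induced with 1 uM final doxycycline for 16 hr. Viability was read as ATP by CellTiter-Glo luminescence after 30 min.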
# [5] = target: Nuclear receptor ROR-gamma (Homo sapiens) (UniProt P51449); experiment: qHTS assay to identify small molecule antagonists of the retinoid-related orphan receptor gamma (ROR-gamma) signaling pathway (AID 1159521; note: nearly all actives have a fitted effect of over 50% in size; note: potency is the fitted concentration of half-maximal effect)
# Method in brief: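 Cells were plated, rested 4 h at 37 C, exposed to compounds for 2 h, then given 1 uM final doxycycline hyclate to induce RORγ expression. After 16 h, ONE-Glo luminescence from the ROR response element reporter was measured.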
# [6] = qHTS assay for small molecule agonists of the antioxidant response element (ARE) signaling pathway - cell viability counter screen (AID 743203; calls by dose curve; note: nearly all actives have a fitted effect of over 55% in size; note: potency is the fitted concentration of half-maximal effect); settings: ARE-bla HepG2 viability, CellTiter-Glo luminescence, 16 h; viability change, negative = cytotoxic: at 73.3 µM (top of the series)
# Method in brief: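 CellSensor ARE-bla HepG2 cells, 2,000 per well, rested 5 hrs at 37C/5% CO2, then exposed to compound in DMSO for 16 hrs; viability read as CellTiter-Glo luminescence after 30 min at room temperature, in the reporter wells.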
# [7] = qHTS assay to identify small molecule antagonists of the peroxisome proliferator-activated receptor delta (PPARd) signaling pathway - cell viability counter screen (AID 743213); settings: PPARd-bla HEK293H viability, CellTiter-Glo luminescence, 17 h; viability change, negative = cytotoxic: at 62 µM (top of the series) unless noted; note: nearly all actives have a fitted effect of over 50% in size; note: potency is the fitted concentration of half-maximal effect
# Method in brief: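 PPARd-bla HEK293H cells were treated with compounds plus agonist L165041 (300 nM final) for 17 h at 37 C. Viability was then read in the same wells by CellTiter-Glo luminescence after 30 min at room temperature.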
# [8] = target: Peroxisome proliferator-activated receptor delta (Homo sapiens) (UniProt Q03181); experiment: qHTS assay to identify small molecule antagonists of the peroxisome proliferator-activated receptor delta (PPARd) signaling pathway (AID 743215; active = well fitted inhibition curve with a large enough effect in the signal ratio in the repeat runs, not every such curve was filed as active; inconclusive = weak or mixed curves, or effect the other way; inactive = no such curve, though single readings can be large or run the other way; the % refers to the signal ratio;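 note: cells stimulated with agonist L165041 at 300 nM final during compound exposure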; note: potency is the fitted concentration of half-maximal effect); settings: HEK293H PPARd-UAS-bla, beta-lactamase FRET ratio, antagonist, 17 h; ratio activity, negative = inhibition: at 62 µM (top of the series) unless noted
# Method in brief: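 PPARd UAS-bla HEK293H cells were pre-incubated 5 h at 37 C, then given test compounds in DMSO plus agonist L165041 (300 nM final). After 17 h at 37 C, beta-lactamase FRET substrate was added; fluorescence read after 2 h at room temperature.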
# [9] = qHTS assay to identify small molecule agonists of the farnesoid-X-receptor (FXR) signaling pathway - cell viability counter screen (AID 743218); settings: FXR-bla HEK293T viability, CellTiter-Glo luminescence, 16 h; viability change, negative = cytotoxic: at 62.6 µM (top of the series) unless noted; note: nearly all actives have a fitted effect of over 45% in size; note: potency is the fitted concentration of half-maximal effect
# Method in brief: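 FXR-UAS-bla HEK 293T cells, plated 5 h at 37 C, were exposed to compounds for 16 h at 37 C. CellTiter-Glo was then added to the same wells as the bla readout; luminescence read after 30 min at room temperature.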
# [10] = qHTS assay to identify small molecule agonists of the vitamin D receptor (VDR) signaling pathway - cell viability counter screen (AID 743224); settings: VDR-bla HEK293T viability, CellTiter-Glo luminescence, 16 h; activity change, negative = cytotoxicity: at 62.6 µM (top of the series); note: potency is the fitted concentration of half-maximal effect; nearly all actives have a fitted effect of over 50% in size
# Method in brief: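 VDR-bla cells were preincubated 4 h at 37C/5% CO2, then exposed to compounds for 16 h. After the 2 h room-temperature bla FRET read, CellTiter-Glo was added to the same wells and luminescence read after 30 min.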
# [11] = qHTS assay to identify small molecule antagonists of the vitamin D receptor (VDR) signaling pathway - cell viability counter screen (AID 743225); settings: VDR-bla HEK293T viability, CellTiter-Glo luminescence, 16 h; viability change, negative = cytotoxic: at 61 µM (top of the series) unless noted
# Method in brief: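 HEK293T VDR-bla; cpd + 1a,25-(OH)2D3 3 nM final, 16 h 37C/5% CO2; B/G FRET substrate 2 h RT; then CellTiter-Glo 30 min RT, luminescence.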
# [12] = target: Peroxisome proliferator-activated receptor delta (Homo sapiens) (UniProt Q03181); experiment: qHTS assay to identify small molecule agonists of the peroxisome proliferator-activated receptor delta (PPARd) signaling pathway (AID 743212; calls by dose curve; note: potency is the fitted concentration of half-maximal effect); settings: HEK293H PPARd-UAS-bla, beta-lactamase FRET ratio, 17 h; activation: at 62.6 µM (top of the series) unless noted
# Method in brief: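 GeneBLAzer PPARd UAS-bla HEK293H cells (beta-lactamase reporter under UAS control), plated and rested 5 h at 37 C, then exposed to compounds in DMSO at 37 C; LiveBLAzer B/G FRET substrate added, 2 h room temperature, fluorescence read.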
# [13] = qHTS assay to identify small molecule antagonists of the farnesoid-X-receptor (FXR) signaling pathway - cell viability counter screen (AID 743221; active = well fitted cell-killing curve with a large enough effect in the repeat runs, not every such curve was filed as active; inconclusive = weak or mixed curves, or effect the other way; inactive = no such curve, though single readings can be large or run the other way); settings: FXR-bla HEK293T viability, CellTiter-Glo luminescence, 16 h; activity change, negative = cytotoxicity: at 62.6 µM (top of the series) unless noted
# Method in brief: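 Multiplexed counter screen: viability of FXR-bla HEK 293T cells under agonist stimulation by chenodeoxycholic acid (50 uM, final) and test compound for 16 h at 37 C, measured by CellTiter-Glo luminescence in the reporter wells.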
# [14] = qHTS assay for small molecule activators of the heat shock response signaling pathway - cell viability counter screen (AID 743209); settings: HSE-bla HeLa viability, CellTiter-Glo luminescence, 5 h; activity change, negative = cytotoxicity: at 62.6 µM (top of the series)
# Method in brief: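 CellSensor HSE-bla HeLa cells, plated overnight at 37 C/5% CO2, were exposed to compounds in DMSO for 5 h at 37 C. Viability was then read in the same wells by CellTiter-Glo luminescence after 30 min at room temperature.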
# [15] = qHTS assay for small molecule activators of the heat shock response signaling pathway (AID 743210; active = well fitted activation curve with a large enough effect in the signal ratio in the repeat runs, with a control signal flat, not every such curve was filed as active; inconclusive = weak or mixed curves; the % refers to the signal ratio; note: % is set by controls: 0 for no effect and ±100 for the full control effect); settings: HeLa HSE-bla reporter, beta-lactamase ratio, 5 h; activation: at 62.6 µM (top of the series) unless noted
# Method in brief: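 HSE-bla HeLa cells (beta-lactamase reporter under heat shock response elements) were exposed to compounds for 5 h at 37 C, then loaded with LiveBLAzer B/G FRET substrate for 2.5 h at room temperature before fluorescence reading.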
# [16] = target: Bile acid receptor (Homo sapiens) (UniProt Q96RI1); experiment: qHTS assay to identify small molecule antagonists of the farnesoid-X-receptor (FXR) signaling pathway (AID 743217; active = well fitted inhibition curve with a large enough effect in the signal ratio in the repeat runs, not every such curve was filed as active; inconclusive = weak or mixed curves, or effect the other way; inactive = no such curve, though single readings can be large or run the other way; the % refers to the signal ratio; note: potency is the fitted concentration of half-maximal effect); settings: HEK293T FXR-UAS-bla, beta-lactamase ratio, CDCA-stimulated, 16 h; activity change, negative = inhibition: at 62.6 µM (top of the series) unless noted
# Method in brief: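 FXR-UAS-bla HEK 293T cells pre-incubated 5 h at 37 °C, then exposed to compounds with chenodeoxycholic acid (50 uM final) for 16 h at 37 °C. Beta-lactamase reporter read by LiveBLAzer B/G FRET substrate fluorescence after 2 h at room temperature.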
# [17] = target: Vitamin D3 receptor (Homo sapiens) (UniProt P11473); experiment: qHTS assay to identify small molecule agonists of the vitamin D receptor (VDR) signaling pathway (AID 743222; calls by dose curve; note: potency is the fitted concentration of half-maximal effect); settings: HEK293T VDR-UAS-bla, beta-lactamase FRET ratio, 16 h; activation: at 63.5 µM (top of the series) unless noted
# Method in brief: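 VDR-bla cells were plated 4 h at 37C/5% CO2, then exposed to compounds in DMSO for 16 h. After LiveBLAzer B/G FRET substrate addition and 2 h at room temperature, beta-lactamase reporter fluorescence was read.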
# Tags give direction and shape of the fitted curve or compound fluorescence and quenching.
# Sequence of UniProt Q96RI1 (Q96RI1 whole entry, looked up): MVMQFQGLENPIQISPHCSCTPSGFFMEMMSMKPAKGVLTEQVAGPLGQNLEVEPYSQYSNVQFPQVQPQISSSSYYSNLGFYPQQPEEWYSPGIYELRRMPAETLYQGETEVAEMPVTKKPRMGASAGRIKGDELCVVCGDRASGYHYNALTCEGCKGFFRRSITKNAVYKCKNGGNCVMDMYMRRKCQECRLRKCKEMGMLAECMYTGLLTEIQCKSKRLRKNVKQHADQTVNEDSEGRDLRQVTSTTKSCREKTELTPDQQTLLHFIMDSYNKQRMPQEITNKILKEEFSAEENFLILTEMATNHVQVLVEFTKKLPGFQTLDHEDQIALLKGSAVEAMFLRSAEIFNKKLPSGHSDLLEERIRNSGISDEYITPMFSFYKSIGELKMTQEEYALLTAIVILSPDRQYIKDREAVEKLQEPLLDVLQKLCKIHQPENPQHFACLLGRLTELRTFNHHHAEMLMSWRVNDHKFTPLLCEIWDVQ
# Sequence of UniProt P11473 (P11473 whole entry, looked up): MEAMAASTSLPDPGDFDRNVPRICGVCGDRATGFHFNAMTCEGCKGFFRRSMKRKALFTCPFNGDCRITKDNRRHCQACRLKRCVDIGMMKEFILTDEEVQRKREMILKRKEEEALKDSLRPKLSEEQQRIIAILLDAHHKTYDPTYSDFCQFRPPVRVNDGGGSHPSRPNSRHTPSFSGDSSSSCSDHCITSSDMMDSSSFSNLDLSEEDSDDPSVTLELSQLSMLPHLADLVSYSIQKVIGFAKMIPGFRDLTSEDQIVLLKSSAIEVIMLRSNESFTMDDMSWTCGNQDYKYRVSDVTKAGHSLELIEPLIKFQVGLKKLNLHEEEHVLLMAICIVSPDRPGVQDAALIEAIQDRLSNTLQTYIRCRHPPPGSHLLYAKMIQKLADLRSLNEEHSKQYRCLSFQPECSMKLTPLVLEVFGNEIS
# Sequence of UniProt Q03181 (Q03181 whole entry, looked up): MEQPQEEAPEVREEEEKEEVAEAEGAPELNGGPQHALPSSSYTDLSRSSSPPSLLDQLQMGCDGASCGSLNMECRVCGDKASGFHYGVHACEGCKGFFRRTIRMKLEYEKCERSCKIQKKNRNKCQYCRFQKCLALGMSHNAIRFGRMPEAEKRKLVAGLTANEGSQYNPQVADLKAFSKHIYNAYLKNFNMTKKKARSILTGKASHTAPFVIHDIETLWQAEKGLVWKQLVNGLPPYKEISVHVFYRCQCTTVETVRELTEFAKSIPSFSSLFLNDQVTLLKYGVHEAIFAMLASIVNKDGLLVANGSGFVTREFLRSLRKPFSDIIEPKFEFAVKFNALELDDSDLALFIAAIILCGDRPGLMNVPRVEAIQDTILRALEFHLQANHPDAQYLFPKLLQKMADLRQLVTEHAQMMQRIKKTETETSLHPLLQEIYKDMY
structure (smiles),measurement,setting,value
CCCCNc1cc(C(=O)O)cc(S(N)(=O)=O)c1Oc1ccccc1,Potency,[1],inactive
same,Potency,[2],inactive
same,Potency,[3],inactive
same,Potency,[4],inactive
ClCCOCCOCCCl,Potency,[5],"inconclusive: 0.611 µM [inhibitor, single point]"
C=CC(=O)OCCCCCCCC,Potency,[5],inactive
CCCCCC1C(=O)CCC1CC(=O)OC (stereo unspecified),Potency,[6],inactive
same,Potency,[7],"inconclusive: 0.108 µM [cytotoxic, single point]"
same,Potency,[8],"inconclusive: 0.0549 µM [fluorescent, full curve, poor fit]"
same,Potency,[9],"inconclusive: 68.5 µM [rising, single point]"
same,Potency,[10],"inconclusive: 3.47 µM [cytotoxic, full curve]"
same,Potency,[11],"inconclusive: 13.7 µM [cytotoxic, single point] and inconclusive: 19.5 µM [cytotoxic, partial curve, poor fit]"
same,Potency,[4],"inconclusive: 0.0539 µM [rising, full curve, poor fit]"
O=C(Nc1ccc([N+](=O)[O-])cc1)Nc1ccc([N+](=O)[O-])cc1,Potency,[1],active: 2.66 µM
same,Potency,[6],"inconclusive: 11.9 µM [cytotoxic, partial curve]"
same,Potency,[2],"inconclusive: 0.841 µM [cytotoxic, full curve]"
same,Potency,[12],"inconclusive: 2.37 µM [rising, partial curve, poor fit]"
same,Potency,[7],"inconclusive: 0.841 µM [cytotoxic, full curve]"
same,Potency,[9],active: 0.75 µM
same,Potency,[13],"inconclusive: 1.06 µM [falling, full curve]"
same,Potency,[3],inactive
same,Potency,[10],"inconclusive: 2.66 µM [cytotoxic, full curve, poor fit]"
same,Potency,[4],"inconclusive: 11.9 µM [cytotoxic, partial curve, poor fit]"
N=C(N)S(=O)O,Potency,[4],inactive
CCCCCCCCCOC(C)=O,Potency,[1],inactive
same,Potency,[14],inactive
same,Potency,[15],inactive
same,Potency,[9],inactive
same,Potency,[4],inactive
CCCCCCCCCCCC[N+](C)(C)CC(=O)[O-],Potency,[1],inconclusive: 68.6 µM
same,Potency,[6],"inconclusive: 77 µM [cytotoxic, single point]"
same,Potency,[7],"inconclusive: 49 µM [cytotoxic, single point]"
same,Potency,[16],inactive
same,Potency,[9],"inconclusive: 43.6 µM [cytotoxic, single point]"
same,Potency,[13],inconclusive: 54.9 µM
same,Potency,[10],"inconclusive: 61.6 µM [cytotoxic, single point]"
same,Potency,[11],"inconclusive: 54.9 µM [cytotoxic, single point]"
same,Potency,[4],"inconclusive: 24.3 µM [cytotoxic, partial curve, poor fit]"
O=C(CS)OCCOC(=O)CS,Potency,[8],inactive
same,Potency,[9],inactive
same,Potency,[4],"inconclusive: 43.3 µM [cytotoxic, partial curve]"
CC1=C(O)C(=O)C(C)O1 (stereo unspecified),Potency,[6],inactive
same,Potency,[16],inactive
same,Potency,[9],"inconclusive: 0.631 µM [rising, partial curve, poor fit]"
same,Potency,[4],inactive
CC(=O)C=O,Potency,[4],inactive
CC(=O)OCCC(C)C,Potency,[5],inactive
NS(=O)(=O)c1ccc(C(=O)O)cc1,Potency,[8],inactive
same,Potency,[4],inactive
O=[N+]([O-])c1ccc(CCO)cc1,Potency,[5],inactive
CCCC1CCC(=O)O1 (stereo unspecified),Potency,[5],inactive
OC1CCCCC1c1ccccc1 (stereo unspecified),Potency,[1],inactive
same,Potency,[2],inactive
same,Potency,[3],inactive
same,Potency,[4],inactive
Cc1nn(C)c(Oc2ccccc2)c1/C=N/OCc1ccc(C(=O)OC(C)(C)C)cc1,Potency,[1],"inconclusive: 21.7 µM [rising, full curve, poor fit]"
same,Potency,[6],"inconclusive: 34.4 µM [cytotoxic, partial curve]"
same,Potency,[15],inactive
same,Potency,[2],"inconclusive: 61.6 µM [cytotoxic, partial curve, poor fit]"
same,activation,[12],inconclusive: -10%
same,Potency,[7],"inconclusive: 54.9 µM [cytotoxic, single point]"
same,Potency,[16],"inconclusive: 54.9 µM [rising, partial curve, poor fit]"
same,"activity change, negative = inhibition",[3],inconclusive: 6.58%
same,Potency,[11],"inconclusive: 0.0309 µM [cytotoxic, full curve]"
same,Potency,[4],"inconclusive: 68.6 µM [cytotoxic, partial curve, poor fit]"
CC/C=C/CCCCCCCCCCOC(C)=O,Potency,[4],inactive
CCCCOC(=O)C(C)Oc1ccc(Oc2ccc(C(F)(F)F)cn2)cc1 (stereo unspecified),activation,[1],inconclusive: 12.8%
same,Potency,[17],"inconclusive: 19.5 µM [rising, full curve, poor fit]"
same,Potency,[4],inactive
CC(C)(O)Cc1ccccc1,Potency,[1],inactive
same,Potency,[7],inactive
same,Potency,[9],"inconclusive: 11 µM [rising, full curve]"
same,"activity change, negative = inhibition",[3],inconclusive: -3.96%
same,Potency,[4],inactive
Cc1ccc(C2OC[C@@H]3OC(c4ccc(C)cc4)O[C@H]([C@H](O)CO)[C@@H]3O2)cc1 (stereo partly specified),Potency,[5],"inconclusive: 77 µM [inhibitor, single point]"
c1ccc(-c2nc3ccccc3[nH]2)cc1,Potency,[4],"inconclusive: 30.6 µM [cytotoxic, partial curve, poor fit]"
